Data published in the supplement of paper PMC12015411.

Experiments:
Escherichia coli BW25113 [1] = assay: growth relative to no-drug wells (fraction of no-drug control); higher = more growth, less inhibition
Experimental: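 8 x 8 checkerboard in cation-adjusted Mueller-Hinton broth at 37 °C; OD600 at the end of exponential growth as a fraction of no-drug wells, two biological replicates.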

Escherichia coli BW25113 [2] = assay: growth relative to the colistin-free well (fraction of colistin-free control); nitroxoline concentration 0.75 µg/ml; higher = more growth, less inhibition
Experimental: (§1)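 Two-fold colistin steps (0.25-16 µg/ml) in cation-adjusted Mueller-Hinton broth at 37 °C; OD595 at 10.75 h as a fraction of the colistin-free well with the same nitroxoline dose, four biological replicates.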

[3] = tested on: Escherichia coli J53 pKP2442_mcr-1; assay: as above
Experimental: as §1

[4] = tested on: Escherichia coli J53 pTOPO_mcr-1; assay: as above
Experimental: as §1

[5] = tested on: Escherichia coli J53 pTOPO; assay: as above
Experimental: as §1

Escherichia coli J53 = assay: as above
Experimental: as §1

[6] = tested on: Escherichia coli MG1655 pmrA (G53E); assay: as above
Experimental: as §1

[7] = tested on: Escherichia coli MG1655 pmrB (V88E); assay: as above
Experimental: as §1

Escherichia coli MG1655 = assay: as above
Experimental: as §1

[8] = tested on: Klebsiella pneumoniae 2442 mcr-1; assay: as above
Experimental: as §1

[9] = tested on: Klebsiella pneumoniae CT-R3 pmrB (P95L); assay: as above
Experimental: as §1

[10] = tested on: Klebsiella pneumoniae CT-S; assay: as above
Experimental: as §1

[11] = tested on: Klebsiella pneumoniae LS107; assay: as above
Experimental: as §1

[12] = tested on: Klebsiella pneumoniae LS53 mgrB (IS1R); assay: as above
Experimental: as §1

[13] = tested on: Klebsiella pneumoniae PRZ pKP2442_mcr-1; assay: as above
Experimental: as §1

[14] = tested on: Klebsiella pneumoniae PRZ pTOPO_mcr-1; assay: as above
Experimental: as §1

[15] = tested on: Klebsiella pneumoniae PRZ pTOPO; assay: as above
Experimental: as §1

[16] = tested on: Klebsiella pneumoniae PRZ; assay: as above
Experimental: as §1

CN[C@H](CC(C)C)C(=O)N[C@H]1C(=O)N[C@@H](CC(N)=O)C(=O)N[C@H]2C(=O)N[C@H]3C(=O)N[C@H](C(=O)N[C@H](C(=O)O)c4cc(O)cc(O)c4-c4cc3ccc4O)[C@H](O)c3ccc(c(Cl)c3)Oc3cc2cc(c3O[C@@H]2O[C@H](CO)[C@@H](O)[C@H](O)[C@H]2O[C@H]2C[C@](C)(N)[C@H](O)[C@H](C)O2)Oc2ccc(cc2Cl)[C@H]1O [Vancomycin]
Escherichia coli BW25113 [1], nitroxoline concentration 0 µg/ml
Details	growth
13.5714 µg/ml	0.982
25.4762 µg/ml	0.958
37.381 µg/ml	0.917
49.2857 µg/ml	0.787
61.1905 µg/ml	0.6327
73.0952 µg/ml	0.403
85 µg/ml	0.428

CN[C@H](CC(C)C)C(=O)N[C@H]1C(=O)N[C@@H](CC(N)=O)C(=O)N[C@H]2C(=O)N[C@H]3C(=O)N[C@H](C(=O)N[C@H](C(=O)O)c4cc(O)cc(O)c4-c4cc3ccc4O)[C@H](O)c3ccc(c(Cl)c3)Oc3cc2cc(c3O[C@@H]2O[C@H](CO)[C@@H](O)[C@H](O)[C@H]2O[C@H]2C[C@](C)(N)[C@H](O)[C@H](C)O2)Oc2ccc(cc2Cl)[C@H]1O [Vancomycin] + Oc1ccc([N+](=O)[O-])c2cccnc12 [nitroxoline]
growth, Escherichia coli BW25113 [1]
Details	nitroxoline concentration 0.136 µg/ml	nitroxoline concentration 0.255 µg/ml	nitroxoline concentration 0.374 µg/ml	nitroxoline concentration 0.493 µg/ml	nitroxoline concentration 0.612 µg/ml	nitroxoline concentration 0.731 µg/ml	nitroxoline concentration 0.75 µg/ml
13.5714 µg/ml	0.947	1	1	0.9972	0.771	0.768	0.7039
25.4762 µg/ml	0.969	0.984	0.962	0.641	0.549	0.522	0.338
37.381 µg/ml	0.921	0.811	0.68	0.261	0.296	0.22	0.259
49.2857 µg/ml	0.518	0.679	0.349	0.217	0.171	0.0144	0.022
61.1905 µg/ml	0.379	0.578	0.22	0.0777	0.00587	0.00921	0.0124
73.0952 µg/ml	0.476	0.416	0.0614	0.0015	0.00587	0.00829	0.00852
85 µg/ml	0.447	0.317	0	0.00092	0.00806	0.00668	0.00713

CCC(C)CCCC(=O)N[C@@H](CCN)C(=O)N[C@H](C(=O)N[C@@H](CCN)C(=O)N[C@H]1CCNC(=O)[C@H]([C@@H](C)O)NC(=O)[C@H](CCN)NC(=O)[C@H](CCN)NC(=O)[C@H](CC(C)C)NC(=O)[C@@H](CC(C)C)NC(=O)[C@H](CCN)NC1=O)[C@@H](C)O (stereo not given in full) [colistin] + Oc1ccc([N+](=O)[O-])c2cccnc12 [nitroxoline]
growth
Details	0.25 µg/ml	0.5 µg/ml	1 µg/ml	2 µg/ml	4 µg/ml	8 µg/ml	16 µg/ml
Escherichia coli BW25113 [2]	0.921	0.813	0.00803	0.0103	0.0137	0.0125	0.0155
Escherichia coli J53	0.78	0.309	0.0104	0.0123	0.0273	0.0161	0.0321
Escherichia coli MG1655	0.803	0.755	0.0206	0.0283	0.0274	0.0301	0.0321
[3]	0.8923	0.747	0.556	0.0469	0.0486	0.0304	0.0243
[4]	0.859	0.68407	0.00636	0.00628	0.00359	0.0176	0.00919
[5]	0.895	0.644	0	0.00895	0.0148	0.0131	0.0253
[6]	0.92	0.908	0.872	0.753	0.491	0.224	0.0192
[7]	0.996	0.945	0.867	0.799	0.521	0.356	0.0679
[8]	0.877	0.827	0.772	0.593	0.234	0.0844	0.0437
[9]	0.892	0.901	0.86232	0.816	0.683	0.59	0.387
[10]	0.9311	0.729	0.00168	0.00847	0.00568	0.00741	0.0191
[11]	0.954	0.672	0.0135	0.0127	0.0179	0.0235	0.0164
[12]	0.9593	0.886	0.75	0.789	0.475	0.251	0.224
[13]	0.875	0.916	0.855	0.91	0.839	0.343	0.0558
[14]	1	0.987	0.9557	0.0584	0.00315	0	0
[15]	1	0.949	0	0	0	0	0
[16]	0.906	0.744	0.0107	0.00707	0.00492	0.0129	0.00985

Bacterial growth in Mueller-Hinton broth at 37 °C with the drug at the dose given, alone or with nitroxoline. Checkerboards on E. coli BW25113: OD600 at the end of exponential growth as a fraction of no-drug wells. Colistin series: OD595 at 10.75 h as a fraction of the colistin-free well. 1 = full growth, lower = more inhibition. No active / inactive call per well. Checkerboard doses stop near each drug's IC75, and their values pile up at 1, as if capped there. Colistin and gentamicin are mixtures; one drawing stands for each.
